# From PubChem BioAssay AID1240 (Sanford-Burnham Center for Chemical Genomics, 2008)
# About 800 (1.6%) of roughly 50,000 compounds showed an effect of 50% or more. The list shows a part of the results.
# Target: Bcl-2-like protein 10 (Homo sapiens) (UniProt Q9HD36)
# Assay: Phenotype converters, Bcl-B/TR3 peptide binding displacement, primary biochemical FP (AID 1240);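 also: 0% = Bcl-B with tracer peptide and DMSO and 100% = tracer peptide lacking Bcl-B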
# Settings: GST-Bcl-B / FITC-TR3 peptide fluorescence polarization; stronger effect = higher value; compound at 3.75 mg/L
# UniProt Q9HD36, sequence (Q9HD36 whole entry, looked up): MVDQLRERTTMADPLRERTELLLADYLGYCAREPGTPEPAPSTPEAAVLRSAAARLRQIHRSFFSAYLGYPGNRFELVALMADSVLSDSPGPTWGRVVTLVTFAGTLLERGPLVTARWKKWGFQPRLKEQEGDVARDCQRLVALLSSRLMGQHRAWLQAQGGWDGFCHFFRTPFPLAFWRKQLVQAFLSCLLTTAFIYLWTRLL
row,Compound,displacement [%]
1,O=c1nc(/C=C/c2cccn2-c2ccc([N+](=O)[O-])cc2)cc(C(F)(F)F)[nH]1,6.6
2,COc1ccc(Oc2coc3cc(OCC(=O)O)ccc3c2=O)cc1,-5.1
3,O=C1C=CC(=O)N1c1ccccc1SC(F)(F)F,11.7
4,COc1ccc(C2=C(Nc3ccccc3)c3ccccc3C2=O)cc1,21.7
5,O=C(O)c1ccccc1SC1CC(=O)N(c2ccccc2F)C1=O (stereo unspecified),5.6
6,C=CCOc1ccc(/C=C2/C(=O)NN(c3ccc(C(=O)OCC)cc3)C2=O)cc1OC,-1
7,COc1ccccc1-c1coc2cc(OC(=O)c3cccc(Cl)c3)ccc2c1=O,6.5
8,COc1ccc(/C(N)=N/OC(=O)COc2ccc3ccccc3c2)cc1,9.1
9,CCCCc1ccc(-c2csc(/C(C#N)=C/c3ccc(OC)c(OC)c3)n2)cc1,4.8
10,O=C(Nc1ccc(F)c([N+](=O)[O-])c1)c1cc2ccccc2o1,-1.5
11,NC(=O)c1cnn2c1NC(c1ccco1)CC2C(F)(F)F (stereo unspecified),4.2
12,CC(C)Oc1ccccc1NC(=O)c1ccc(F)c2ccccc12,-22.4
13,COc1ccc([N+](=O)[O-])cc1NC(=O)CC(c1ccccc1)c1ccccc1,12.9
14,COc1ccc(OC)c(N2C(=O)CC(Cc3cc(C)cc(C)c3)C2=O)c1 (stereo unspecified),0.4
15,O=C(CCCN1C(=O)/C(=C/c2cccs2)SC1=S)N1CCOCC1,0.8
16,COc1ccc(C(=O)Nc2cc(Cl)ccc2Cl)cc1NC(=O)c1cccc(F)c1,9.5
17,Cc1cc(/C=C2/SC(=S)NC2=O)c(C)n1-c1cccnc1,-8.3
18,CCOc1cc(/C=N/NC(=O)c2cccs2)ccc1OCc1ccc([N+](=O)[O-])cc1,-10.5
19,Cc1ccc2c(c1)NC(C)(C)c1sn(Cc3ccc(Cl)cc3)c(=S)c1-2,1.4
20,O=C(CC1(c2ccccc2)C(=O)c2ccccc2C1=O)NC1CCCCC1,12.1
21,O=C(c1ccc2c3c(cccc13)CC2)N1CCN(c2ccccn2)CC1,8.7
22,COc1ccc(/C(=C2\OC(=O)c3ccccc32)[N+](=O)[O-])cc1,-4.2
23,CC1CCc2c(sc(NC(=O)/C=C/c3ccccc3)c2C(N)=O)C1 (stereo unspecified),10.5
24,Cc1cc2nc(-c3cc(NC(=O)/C=C/c4cccc([N+](=O)[O-])c4)ccc3O)oc2cc1C,1.6

row,Compound,displacement [%]
1,O=C(/C=C\c1ccc(-c2cc(Cl)ccc2Cl)o1)c1ccccc1,24.9
2,CCOc1ccc(C(=O)Nc2cccc(-c3nc4cc(Cl)ccc4o3)c2C)cc1Br,10.2
3,Cc1c(Cc2ccccc2)sc(NC(=O)c2ccc([N+](=O)[O-])cc2)c1C(N)=O,65.7
4,N#Cc1ccccc1NC(=O)CSCCSCC(=O)Nc1ccccc1C#N,17.7
5,CN(C)CCNC(=O)C12CC3CCC(CC(C3)C1)C2,3.1
6,O=C(Nc1cccc(-c2nc3ccccc3s2)c1)c1ccc2c(c1)OCCO2,5.6
7,O=C1NC(=S)N(C(=O)c2ccc(F)cc2)/C1=C/c1ccc2c(c1)OCO2,-3.5
8,Cc1cc(OCC(=O)NCC(C)C)ccc1Br,2.5
9,Cc1cc(=O)oc2cc(OCC(=O)OC(C)C)c(Cl)cc12,-2.5
10,CCCCSc1nnc2c(n1)OC(/C=C/c1ccccc1)Nc1ccccc1-2 (stereo unspecified),-8.1
11,N#Cc1ccc(NC(=O)c2ccccc2)cc1,16.1
12,COC(=O)c1ccc(/C=N/Nc2nncc(-c3ccccc3)n2)cc1,-9.1
13,COc1cc(NC(=O)c2cccs2)c(Cl)cc1NC(=O)c1ccccc1,3.5
14,CCOc1ccc2c(=O)c(-c3ccccc3OC)c(C(F)(F)F)oc2c1,17.4
15,Cc1ccc2nc(/C(C#N)=C/c3cc(Br)ccc3OCc3ccccc3)[nH]c2c1,-2.3
16,CCOC(=O)c1c(NC(=O)Cc2ccc(OC)cc2)sc(C(=O)Nc2ccccc2F)c1C,7.2
17,CCOC(=O)c1ccc2[nH]c(C)c(C)c2c1,-6.1
18,Clc1cccc(OCCN2CCOCC2)c1Cl,8.4
19,Cc1ccc(NC(=O)CN(c2ccc(C)cc2)S(=O)(=O)c2ccc(F)cc2)cc1,8
20,COc1ccc(-c2cc(C(F)(F)F)n3ncc(C(=O)O)c3n2)cc1,-8.2
21,COc1ccc(N(CC(=O)N2CCOCC2)S(=O)(=O)c2ccc(C)cc2)cc1OC,11.4
22,Cc1ccc(C2=N/C(=C\c3ccccc3)C(=O)O2)cc1,-7.3
23,COc1cc(/C=C2/SC(=S)N(CC(=O)O)C2=O)ccc1OCc1ccccc1,1.7
24,COc1ccc(/C=N/NC(=O)COc2ccccc2C)cc1Cl,2.3

row,Compound,displacement [%]
1,Nc1cc(N2CCOCC2)ccc1[N+](=O)[O-],0.9
2,O=C(/C=C/c1ccco1)NCc1ccc2c(c1)OCO2,11.6
3,CC(C)c1ccc(OC(=O)CN2C(=O)c3ccccc3C2=O)cc1,-1.6
4,Cc1ccc(N(CC(=O)Nc2ccccc2C)S(=O)(=O)c2ccccc2)cc1,11.8
5,COc1cccc(OC)c1C(=O)Nc1cc(C)ccn1,-10.7
6,O=C(Cn1c(NCCO)nc2ccccc21)c1cccc([N+](=O)[O-])c1,-1.4
7,O=C(O)C1C2C=CC(O2)C1C(=O)Nc1nccs1 (stereo unspecified),-7.9
8,COc1cc(NC(=O)/C=C/c2ccccc2)cc(OC)c1,-12.8
9,O=C(Nc1cccc(O)c1)c1ccc(Cl)cc1,13.4
10,Clc1ccc(SCCCN2CCOCC2)cc1,19.9
11,Cc1cc(C)c(C#N)c(SCC(=O)Nc2ccc([N+](=O)[O-])cc2)n1,-4
12,Cc1ccc(CNC(=O)CN(c2cccc(Cl)c2)S(=O)(=O)c2ccccc2)cc1,3.6
13,CCOC(=O)COc1c(C)cc(Br)cc1C,-2.3
14,C=C(C)Cn1c(SC)nc2sc3c(c2c1=O)CCC(C(C)(C)C)C3 (stereo unspecified),6.7
15,CCOc1ccc(N(CC(=O)NCC(C)C)S(=O)(=O)c2ccc(SC)cc2)cc1,0.6
16,Cc1cc(C)c2oc(-c3ccc(C)c(NC(=O)c4cccs4)c3)nc2c1,46.4
17,O=C(Nc1ccccc1)Nc1nccs1,-2.1
18,Cc1ccccc1C(=O)NNC(N)=S,-6
19,CCOC(=O)C(CC(C)C)NC(=O)/C(=C\c1ccc(Br)cc1)NC(=O)c1ccccc1 (stereo unspecified),-2.8
20,Cc1ccc(/C=N/NC(=O)c2cccnc2)o1,11.9
21,Cc1ccc(/C(N)=N/OC(=O)c2ccccc2Br)cc1,-1.6
22,O=C(c1ccncc1)N1CCN(S(=O)(=O)c2ccc(Cl)cc2)CC1,-8.4
23,O=Cc1ccccc1OCc1c(F)cccc1Cl,5.7
